Experimental data from PubChem BioAssay AID485281 (National Center for Advancing Translational Sciences (NCATS), 2010).
“And” between values parts separate entries of the source, which are not always exact repeats. Equal values may be shown once. The campaign covered roughly 350,000 compounds. About 260 (0.074%) were called active. This list was built around the results that the source calls inconclusive (neither active nor inactive); the mix of calls is not that of the screen. Calls come from the whole dose curve; as a rule, active = well fitted inhibition curve with a large enough effect; inconclusive = small, poorly fitted or top-dose-only effect; inactive = no such curve, though single readings can be large or run the other way. Potencies of inconclusive entries are doubtful fits and often do not repeat.

The compounds below were run against Ferritin light chain (Equus caballus) (UniProt P02791) (assay: qHTS Assay for Identification of Novel General Anesthetics). Conditions: apoferritin/1-aminoanthracene competitive binding, fluorescence; activity change, negative = displacement: at 77.5 µM (top of the series).
Sequence of UniProt P02791 (P02791 whole entry, looked up): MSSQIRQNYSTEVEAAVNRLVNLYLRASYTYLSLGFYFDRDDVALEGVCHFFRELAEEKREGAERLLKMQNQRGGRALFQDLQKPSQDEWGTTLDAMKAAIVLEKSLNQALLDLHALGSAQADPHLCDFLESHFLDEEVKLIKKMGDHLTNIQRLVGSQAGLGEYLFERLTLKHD
In short: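 Apoferritin-based anesthetic binding model; compound displacement of fluorescent 1-AMA measured as endpoint fluorescence after 10 minutes at room temperature, scaled to free-ligand and complex controls.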
% is set by controls: 0 for no effect and ±100 for the full control effect; potency is the fitted concentration of half-maximal effect; tags give direction and shape of the fitted curve.
Note: nearly all actives have a fitted effect of over 20% in size.

Potency, inconclusive:
CC(C)(CCl)C(=O)Nc1ccc(C(F)(F)F)cc1 35.5 µM [inhibitor, partial curve], O=C(c1cc(COc2ccc(F)cc2Cl)on1)N1CC[C@@H]2CCCC[C@H]2C1 56.2 µM [inhibitor, single point], Nc1ccc(N=Nc2ccccc2)c(N)n1 11.2 µM [inhibitor, partial curve] and 50.1 µM [inhibitor, single point], CCNc1ccc(C(=O)OCC)cc1NC(=O)c1cccc(S(=O)(=O)N2CCOCC2)c1 35.5 µM [inhibitor, single point], O=C1c2cc(O)cc(O)c2OC[C@@H]1c1ccc(O)c(O)c1 25.1 µM [inhibitor, single point], COc1ccc(COC(=O)NNC(=O)c2ccccc2Cl)cc1 28.2 µM [inhibitor, single point], CCNc1nc(Cl)nc(NC2CCCCC2)n1 22.4 µM [inhibitor, partial curve], COC(=O)c1cc(Sc2c(Cl)cccc2Cl)ccn1 31.6 µM [inhibitor, partial curve], O=C(Nn1c(O)c(C=C2N=c3ccccc3=N2)sc1=S)c1ccccc1 17.8 µM [inhibitor, partial curve], Cc1ccccc1-c1nn2c(-c3ccccc3)nnc2s1 14.1 µM [inhibitor, partial curve], CCCc1cc(=O)[nH]c(Nc2ccc(N3CCCCC3)cc2)n1 56.2 µM [inhibitor, single point], COc1ccc(/C=C2/C(=O)N(c3c(F)c(F)c(F)c(F)c3F)N=C2C)cc1 0.794 µM [inhibitor, full curve, poor fit], CC(Nc1cc(N2CCN(C(=O)C(C)(C)C)CC2)ccc1[N+](=O)[O-])c1ccccc1 (centres undefined) 35.5 µM [inhibitor, partial curve], CCc1ccc(NC(=O)CN2CCc3ccccc3C2)cc1 35.5 µM [inhibitor, single point], CC[C@@H](C)[C@H](CNC)NC[C@@H](Cc1cccc2ccccc12)NCCc1cccc(C(F)(F)F)c1 11.2 µM [inhibitor, partial curve], COc1cccc(N2CCN(C(=O)CN3C(=O)COc4ccc(S(=O)(=O)N5CCC(C)CC5)cc43)CC2)c1 5.01 µM [inhibitor, single point], CC(C)C1C(=O)NC(=S)N1S(=O)(=O)c1ccc(C(C)(C)C)cc1 (centres undefined) 12.6 µM [inhibitor, partial curve], Cc1[nH]c(=S)[nH]c(=O)c1CCOc1ccccc1 50.1 µM [inhibitor, partial curve, poor fit], COc1ccc(N2CCN(C(=O)/C(C#N)=C/c3ccccc3)CC2)cc1 22.4 µM [inhibitor, partial curve], O=C(COc1ccccc1[N+](=O)[O-])NCCC1=CCCCC1 35.5 µM [inhibitor, partial curve], CC(C)(C)N(Cc1ccccc1)C(=O)c1ccc2c(c1)OCCO2 28.2 µM [inhibitor, partial curve], O=S(=O)(c1ccc2[nH]ccc2c1)N1CCCCCC1 15.8 µM [inhibitor, partial curve], Fc1ccc(-[n+]2nc(Nc3ccccc3)sc2-c2c3ccccc3cc3ccccc23)cc1 0.794 µM [inhibitor, full curve, poor fit], Cc1cccc(Oc2ccc3c(c2)Oc2ccccc2NC3=O)c1 22.4 µM [inhibitor, single point], O=C(/C=C/c1cccc([N+](=O)[O-])c1)N1CCN(S(=O)(=O)c2cccs2)CC1 25.1 µM [inhibitor, partial curve], COc1ccc(OCc2cc(C(=O)N(C)C(C)c3ccon3)no2)c(Cl)c1 (centres undefined) 20 µM [inhibitor, partial curve], COC(=O)c1sc(=S)n(-c2ccc(Cl)cc2)c1C 28.2 µM [inhibitor, partial curve], c1ccc2[nH]c(-c3cnco3)cc2c1 31.6 µM [inhibitor, single point], O=[N+]([O-])c1ccc(N/N=C/c2cccc(O)c2O)cc1 31.6 µM [inhibitor, partial curve], O=C(CC12CC3CC(CC(C3)C1)C2)NCO 8.91 µM [inhibitor, partial curve], CCOC(=O)c1c(NC(=O)CSc2nnc(CNc3ccc(OC)cc3)n2C)sc(C)c1C 17.8 µM [inhibitor, partial curve], O=C1/C(=C/c2ccc(N3CCOCC3)o2)SC(=Nc2ccccc2)N1CCc1c[nH]c2ccccc12 12.6 µM [inhibitor, partial curve], COc1ccc(C2CC(=O)c3ccccc3O2)cc1 (centres undefined) 50.1 µM [inhibitor, single point], COc1ccc(/C=N/NC(=O)CNC(=O)c2cccs2)cc1 12.6 µM [inhibitor, partial curve], CN(C)/C=C/C(=O)c1ccc(Cl)cc1 15.8 µM [inhibitor, partial curve], CCOC(=O)c1cccnc1SCC(=O)N(C)c1ccccc1 35.5 µM [inhibitor, partial curve], Cc1c(C(=O)Nc2ccc(S(=O)(=O)N3CCOCC3)cc2)cccc1[N+](=O)[O-] 25.1 µM [inhibitor, single point], Cc1ccc(CNC(=O)C2CCN(S(=O)(=O)c3c(C)noc3/C=C/c3ccco3)CC2)cc1 5.01 µM [inhibitor, partial curve], Cc1nc2c3ccccc3nc(NNC(=O)CCC(=O)N3CCN(c4cccc(C(F)(F)F)c4)CC3)n2n1 50.1 µM [inhibitor, single point], CCc1ccc(NS(=O)(=O)c2ccc3[nH]cc(C(=O)N(C)Cc4ccco4)c(=O)c3c2)cc1 15.8 µM [inhibitor, partial curve] and 17.8 µM [inhibitor, partial curve], CCc1ccc(C(C)NC(=O)C2(C)CC2(Br)Br)cc1 (centres undefined) 35.5 µM [inhibitor, partial curve], Clc1ccc(-c2csc(N/N=C\c3cccnc3)n2)cc1 39.8 µM [inhibitor, single point], Cc1ccc(-n2c(SCC(=O)NCc3ccc4c(c3)OCO4)nnc2-c2cccnc2)c(C)c1 25.1 µM [inhibitor, partial curve], O=C(CC(=O)Nc1ccccc1[N+](=O)[O-])Nc1ccccc1[N+](=O)[O-] 28.2 µM [inhibitor, single point], CC1(c2ccccc2)CC(C)(C)N2C(=O)C(=O)c3cccc1c32 (centres undefined) 39.8 µM [inhibitor, partial curve], O=C(Nc1ccc2ccccc2c1)c1ccc(Br)o1 22.4 µM [inhibitor, partial curve], Cc1ccc(NCc2nnc(SCC(=O)c3ccccc3)o2)c(C)c1 25.1 µM [inhibitor, partial curve]

Activity change, negative = displacement, inactive:
Cc1nn(Cc2ccc(F)cc2)c(C)c1NC(=O)c1cc2ncc(Br)cn2n1 -23.4%, O=C(Nc1ccc(S(=O)(=O)N2CCOCC2)cc1)c1ccc([N+](=O)[O-])o1 -6.19%, Cc1ccc(C(=O)Nc2ccc(N3CCOCC3)nc2N2CCOCC2)cc1 13%, Cc1ccc(Nc2nc3ccccc3c3nnc(C)n23)c(C)c1 3.1%, Cc1cccc(OCCCn2ccnc2)c1 8.14%, CC(=O)Nc1ccc(C2=NN(c3ccccc3)C(c3ccccc3)C2)cc1 (centres undefined) 44.6%, Nn1c(COc2ccc(Cl)cc2)n[nH]c1=S -4.36%, COc1ccc(C)cc1-n1nnc(C(=O)Nc2cccc(SC)c2)c1C -7.57%, Cc1c(C)c2c(OCC(=O)NCc3ccncc3)cc3c(c2oc1=O)CCC(C)(C)O3 -11.9%, CCC1CCCCN1S(=O)(=O)c1ccc(C(=O)Nc2nnc(C3CC3)o2)cc1 (centres undefined) -21.8%, Cc1ccnc(NS(=O)(=O)Cc2ccccc2)c1 6.44%, Clc1cccc(N/N=C/c2ccc(N3CCOCC3)cc2)c1 -11.5%, COc1ccccc1NC(=S)NCc1cccs1 -4.21%, Cc1ccc2cccc(N=Cc3c(C)[nH]n(-c4ccccc4)c3=O)c2n1 -15.3%, COc1ccc(CNc2ncnc3c2cnn3-c2ccc(C)c(C)c2)cc1 1.03%, COc1ccc(C)c(-n2c(=O)n(Cc3ccccc3)c(=O)c3[nH]cnc32)c1 -7.05%, O=C(CCc1ccccc1)N=C1SC2CS(=O)(=O)CC2N1c1cccc(F)c1 (centres undefined) -2.54%, CCCCCCc1cc2cc(S(=O)(=O)c3ccc(C)cc3)c(=O)oc2cc1O -15.1%, O=C(NC(=S)NCCN1CCOCC1)c1ccc(F)cc1 -8.81%, CCN(CC)CCCNC(=O)c1cc(Nc2ccc(OC)cc2)nc2ccccc12 -10.1%, CCOC(=O)COc1c(C(=O)OC)sc2ncccc12 -11.5%, CCOc1ccc(C2C=C(c3ccc(C)cc3)Nc3nnnn32)cc1 (centres undefined) 84.3%
